Measurements published in patent US20150031733A1, “TETRAZOLINONE COMPOUNDS AND ITS USE” (SUMITOMO CHEMICAL COMPANY, LIMITED, priority 2012, published 2015).

How the values were obtained:
[1] = test system: soybean rust fungi (Phakopsora pachyrhizi); assay: Soybean rust control test, foliar spray after inoculation; assay type: in vivo; settings: 200 ppm, foliar spray one day after inoculation, soybean (cv; Kurosengoku)
[2] = test system: tomato late blight fungi (Phytophthora infestans); assay type: in vivo; settings: 500 ppm, foliar spray, tomato (cv; Patio)
[3] = test system: barley net blotch fungi (Pyrenophora teres); assay: Barley net blotch control test, foliar spray before inoculation; assay type: in vivo; settings: 50 ppm, foliar spray 2 days before inoculation, barley (cv; Mikamo Golden)
[4] = test system: barley scald fungi (Rhynchosporium secalis); assay: Barley scald control test, foliar spray before inoculation; assay type: in vivo; settings: 500 ppm, foliar spray 2 days before inoculation, barley (cv; Mikamo Golden)
[5] = test system: grapes downy mildew fungi; assay: Grapes downy mildew control test, foliar spray before inoculation; settings: 200 ppm, grapes (Seeding of Chardonnay)

In the case of `Cc1cccc(-n2nnn(C)c2=O)c1COc1nc(C(C)(C)C)cs1` [Compound T047, 2-{[1-(4,5-dihydro-4-methyl-5-oxo-1H-tetrazole-1-yl)-3-methylphenyl-2-yl]methyloxy}-4-(1,1-dimethylethyl)thiazole], the “lesion area compared to the lesion area in untreated plants” value (shortened to “lesion area compared to the lesion area”) [1] was at most 30% and the “lesion area compared to the lesion area” value [2] was at most 30%.

For “4-((1-(4,5-dihydro-4-methyl-5-oxo-1H-tetrazole-1-yl)-2-phenyl-2-yl]methyloxy}-4-phenylthiazole [control compound]”, the “lesion area compared to the lesion area” value [3] was at least 70%.

For `Cn1nnn(-c2ccccc2COc2nc(C(C)(C)C)cs2)c1=O` [Compound T025, 2-{[1-(4,5-dihydro-4-methyl-5-oxo-1H-tetrazole-1-yl)phenyl-2-yl]methyloxy}-4-(1,1-dimethylethyl)thiazole], the “lesion area compared to the lesion area” value [4] was at most 10%.

For `Cc1ccc(-c2csc(OCc3ccccc3-n3nnn(C)c3=O)n2)cc1` [Compound T012, 2-{[1-(4,5-dihydro-4-methyl-5-oxo-1H-tetrazole-1-yl)phenyl-2-yl]methyloxy}-4-(4-methylphenyl)thiazole], the “lesion area compared to the lesion area” value [5] was at most 30%.
